Measured values published in the RNAGym collection of RNA variant scans (doi:10.7554/elife.90254).
Read counts are not given, so values of variants with three or more changes are uncertain.

B1: OR4K15 (parent)
chain: GUUAACGGUCAUAGGCCAUGGAAACUAGGAGCACCAUUUCGCUGCCAGUGAAGAAAUGAACAAAGAAAAUCUGGGCCAGGCAGGCAUCAAAAGAAAUAGUCUUGCGCUCAACCAGAAAGUCUGUAAUCAUUUUAAGGGUA

Variants of: B1
Assay: self-cleavage, relative activity (ratio to wild type); higher = more cleavage; in vitro, sequencing; the parent is a self-cleaving ribozyme
A11G A51G A94G gave a self-cleavage of 0.89.
Variant A11G A51U C61U A67G U131C has a self-cleavage of 0.99.
For A11G A59G A117U, the self-cleavage was 0.28.
In the case of U9G A33G A54U A135G, the self-cleavage is reported as 0.68.
In the case of U9G A69G A116G, the self-cleavage is reported as 0.29.
Variant A11U A22G A67G U70C A96G has a self-cleavage of 0.83.
A11G A56G A94G A125G gave a self-cleavage of 0.68.
A11G A60G A78U showed a self-cleavage of 0.37.
Work on A11C A23G A90G A116C yielded a self-cleavage of 0.03.
For A11G A51U A91U, the self-cleavage was 0.63.
A11G A110G U130C gave a self-cleavage of 0.04.
For A11U A66G A86G U87C U130C, the self-cleavage was 0.45.
A11U A23G A89U gave a self-cleavage of 0.61.
In the case of A11U A24U U120C, the self-cleavage is reported as 0.94.
In the case of A11G A89C A111G U122A, the self-cleavage is reported as 0.03.
For C10U U39C A91U A117C U122A U139C, the self-cleavage was 0.59.
With C10U A36U A86G the self-cleavage was 1.12.
With U9G U87C U102C the self-cleavage was 1.03.
In the case of C10U U37C A94U, the self-cleavage is reported as 0.96.
Work on A11G A96G U97G yielded a self-cleavage of 1.63.
For A11U U43C U100C A129G, the self-cleavage was 1.79.
With U9G A27G U70A U87C U102C the self-cleavage was 0.44.
Variant A11G A62U U87C has a self-cleavage of 1.2.
For A11G G14A A92U A117G, the self-cleavage was 2.26.
In the case of A11U U37C A90G, the self-cleavage is reported as 0.99.
With A11G U72C A90U U122A the self-cleavage was 0.28.
With A11G U57A U102C the self-cleavage was 1.09.
For A11G A54U U122C, the self-cleavage was 0.55.
Variant A11G A13G A24U A30G has a self-cleavage of 0.71.
In the case of A11U U57C U87C A111G, the self-cleavage is reported as 0.03.
Work on C10U C42U G136A yielded a self-cleavage of 1.23.
For A11G A33G A78G A114G A126G U139C, the self-cleavage was 0.01.
Variant U12A A30G A90U G106U A114G U122A has a self-cleavage of 0.02.
C10U A51G A111G showed a self-cleavage of 0.
C10U U87A A92G U120C gave a self-cleavage of 0.5.
C10A U43A A59G gave a self-cleavage of 0.63.
U12A A27C U43C A62G gave a self-cleavage of 2.18.
U12A A36C A51G A63G U120C gave a self-cleavage of 0.9.
With U9C U102G A116G the self-cleavage was 1.26.
In the case of A11U A23G U43C, the self-cleavage is reported as 0.75.
Work on A11G A13G A51U A94U A110G yielded a self-cleavage of 0.02.
A11U U103C U108A gave a self-cleavage of 0.01.
Variant A11U A27G A36G U122C has a self-cleavage of 0.75.
With A11G A66U A92G U102C the self-cleavage was 0.79.
With A11G A96G A129G the self-cleavage was 0.34.
Work on A11G A33G A47G yielded a self-cleavage of 0.22.
For C10U A52G U108C, the self-cleavage was 0.01.
With A11U A47G U72C the self-cleavage was 0.21.
Work on A11G A51G A78U U87A U103C A110C yielded a self-cleavage of 0.1.
Variant A11U U37G U43A A51G U102C has a self-cleavage of 1.78.
A11G A94G U102C showed a self-cleavage of 1.8.
Variant A11U U39A A55G has a self-cleavage of 1.23.
A11U A117C A125G showed a self-cleavage of 0.
A11G U49C A90G U102C gave a self-cleavage of 1.54.
A11U C40U A68G A78G gave a self-cleavage of 0.31.
A11G U100C A126G showed a self-cleavage of 1.41.
With U9G A23G U87C A118G the self-cleavage was 0.33.
In the case of A11G A51U A66U A68G U130C, the self-cleavage is reported as 1.03.
A11G U38C A94G A116U showed a self-cleavage of 0.22.
With A11G A67G G75C A140C the self-cleavage was 0.16.
In the case of A11G A95G U139A, the self-cleavage is reported as 2.15.
C10U U43A A62U gave a self-cleavage of 0.99.
With A11G A22U U103C the self-cleavage was 0.97.
A11G A92G A95G gave a self-cleavage of 2.06.
In the case of U12A A23G C45G, the self-cleavage is reported as 0.99.
Work on U12A A51G A95G yielded a self-cleavage of 1.45.
In the case of A11G A67G U72C U87A U122C, the self-cleavage is reported as 0.1.
A11G A13G A27G U72C gave a self-cleavage of 0.27.
In the case of A11U U72C U124A, the self-cleavage is reported as 0.08.
A11G A52G A59G showed a self-cleavage of 0.87.
In the case of A11G A51U A78U, the self-cleavage is reported as 0.31.
Variant U9G A86U U122C has a self-cleavage of 1.04.
In the case of A11G A22U U127C, the self-cleavage is reported as 0.92.
Work on U12A A18U G21A A78U A117G yielded a self-cleavage of 0.61.
A11G A56G A110G gave a self-cleavage of 0.3.
For U9C U100C A117G, the self-cleavage was 0.24.
A11G U38A A54G U100C A111G gave a self-cleavage of 0.04.
With A11G U72C U100A the self-cleavage was 0.11.
For A11G U39C A64G A82G U100C, the self-cleavage was 0.77.
Work on U9C U103C U133G G138A yielded a self-cleavage of 1.02.
With A11U A54G A82G U130C the self-cleavage was 0.41.
A11C A118U A126G A140G showed a self-cleavage of 0.07.
A11G A94G A96G U130A gave a self-cleavage of 0.42.
Work on C10U U19C A55G A78G G106A A116G yielded a self-cleavage of 0.02.
Work on A11U A91G A125G yielded a self-cleavage of 0.69.
In the case of A11G A60U A66G U70C, the self-cleavage is reported as 0.42.
Variant A11G A33G A82G G84A A117G has a self-cleavage of 0.59.
For A11U A92G U108A, the self-cleavage was 0.03.
A11U A64G U133C gave a self-cleavage of 0.67.
For A11G C46A U130C, the self-cleavage was 0.59.
For A11G A69G A116U, the self-cleavage was 0.24.
With A11G U39C A52G A55G G73U A89G A91G the self-cleavage was 0.09.
Variant A11U A23G A33G A68G U132C has a self-cleavage of 1.14.
With A11G A56U A91U U132C the self-cleavage was 1.02.
In the case of C10U U49C U57A, the self-cleavage is reported as 0.95.
With A11G U38C U72C the self-cleavage was 0.24.
A11G A96G A116G gave a self-cleavage of 0.1.
Work on A11U U38C U103C U127C yielded a self-cleavage of 0.22.
U12A A52C A54G gave a self-cleavage of 1.43.
C10A A27G A117G gave a self-cleavage of 0.89.
A11U G15A U38C A67G A95G showed a self-cleavage of 0.22.
Work on C10A A47G A60U A67G U97C yielded a self-cleavage of 0.76.
Work on A11G A125G U133C yielded a self-cleavage of 0.49.
A11U A110G U127C showed a self-cleavage of 0.09.
Variant A11G A60G U72A has a self-cleavage of 0.31.
For A11G A54G U103C, the self-cleavage was 0.99.
With A11U U70C A86G A92G U97C A117G A118G the self-cleavage was 0.18.
A11G A52G A92G A114U showed a self-cleavage of 0.04.
For A11U U39C U49C A114G, the self-cleavage was 0.47.
Work on A11G A118G G137U yielded a self-cleavage of 1.02.
Work on A11G A23U C32U U57C A114U yielded a self-cleavage of 0.05.
With A11U A56G A126G the self-cleavage was 0.87.
For C10U A30G G75A A95G A135C, the self-cleavage was 0.05.
A11G G75A A126U showed a self-cleavage of 0.14.
A11G A18U A23G U38C showed a self-cleavage of 0.79.
A11G U26C U127C U131C gave a self-cleavage of 0.37.
Work on A11C A55C U130C yielded a self-cleavage of 1.17.
For U9G A67U A86U, the self-cleavage was 0.94.
With A11G U37C U102C U120C the self-cleavage was 1.59.
A11U U38C A67C A117G showed a self-cleavage of 2.14.
A11C U37C A78G gave a self-cleavage of 0.23.
Variant A11G U102C A118G A126G has a self-cleavage of 0.79.
Work on A11U A23G A62U yielded a self-cleavage of 0.74.
A11G U39C U102C A110G gave a self-cleavage of 0.12.
Variant A11G A51G A64G A114U has a self-cleavage of 0.35.
Work on C10A A59U A82G A96G yielded a self-cleavage of 0.23.
Work on U9C U100C U132A yielded a self-cleavage of 0.9.
With A11U A27G G28U U103C the self-cleavage was 0.31.
For A11G G20A U100A, the self-cleavage was 0.64.
For C10U A55G A69C U103C A117G, the self-cleavage was 0.56.
Variant U9C U72A U124C has a self-cleavage of 0.09.
In the case of U12A A18U U19C A23C A92G U130C, the self-cleavage is reported as 0.37.
A11G A30G G73A A117U U132A showed a self-cleavage of 0.04.
A11G A52U A54G U57C A59G A67G A117G A118G showed a self-cleavage of 0.92.
Variant U12A A13G A18C U49C A55G A110G A111G has a self-cleavage of 0.05.
A11C A69G C128U gave a self-cleavage of 1.4.
A11G G75A A91U A114G gave a self-cleavage of 0.1.
C10U G28A A30G U49C G50U A111U A116G showed a self-cleavage of 0.02.
In the case of A11U A91G U108C, the self-cleavage is reported as 0.01.
A11U A22G A54U U139A gave a self-cleavage of 1.45.
A11G U19C A47U gave a self-cleavage of 1.38.
A11C G14A U19A U70C A86G U102A gave a self-cleavage of 0.12.
A11G U70C U127G gave a self-cleavage of 0.91.
For A11G A36U A62C U130C A140U, the self-cleavage was 0.88.
A11G A13G U49C A55G A60G A114U gave a self-cleavage of 0.05.
For A11G A18G A118G, the self-cleavage was 1.18.
A11G A36U A54G gave a self-cleavage of 0.9.
In the case of C10U A54G A55U, the self-cleavage is reported as 0.6.
For A11G C46U A91G U100C A110G, the self-cleavage was 0.23.
For A11G U43C G48A A98G U102C A114U, the self-cleavage was 0.14.
In the case of U9G G44A A47U, the self-cleavage is reported as 1.25.
With A11G U19C A51G A91G U103C C105U the self-cleavage was 0.03.
For A11G U19C U43C A60U, the self-cleavage was 0.92.
A11U U49C A111U A118U showed a self-cleavage of 0.05.
For A11U A96G U131C A135U, the self-cleavage was 0.93.
A11G A52U A54G A90G A96G U102C A111G showed a self-cleavage of 0.01.
A11G A78G A89G A94G A96G showed a self-cleavage of 0.11.
Work on A11G A47C A52G A59G yielded a self-cleavage of 0.39.
In the case of A11C A30G A33U A129G, the self-cleavage is reported as 0.85.
In the case of A11U A95G A118G, the self-cleavage is reported as 0.72.
Work on A11G A27G G58A yielded a self-cleavage of 0.76.
A11G A23G A60G A62G U87C showed a self-cleavage of 0.27.
For A11G A27U A56G A135G, the self-cleavage was 1.11.
Variant A11C A22G A82G U132C has a self-cleavage of 0.44.
A11G U108C U127C gave a self-cleavage of 0.01.
With U9G A24G A36U U97C the self-cleavage was 1.23.
A11U U108C A116U showed a self-cleavage of 0.01.
